# Results taken from PubChem BioAssay AID1469 (National Center for Advancing Translational Sciences (NCATS), 2008).
# Out of some 280,000 compounds screened, about 180 (0.064%) were called active. Calls follow the shape of the dose curve; as a rule, active = well fitted inhibition curve with a large enough effect; inconclusive = small, poorly fitted or top-dose-only effect, or effect the other way; inactive = flat fitted curve, though single readings scatter. The list shows a part of the results, in another mix than the full data.
# Biological target: Thyroid hormone receptor beta (Homo sapiens) (UniProt P10828)
# Chain of UniProt P10828 (P10828 whole entry, looked up): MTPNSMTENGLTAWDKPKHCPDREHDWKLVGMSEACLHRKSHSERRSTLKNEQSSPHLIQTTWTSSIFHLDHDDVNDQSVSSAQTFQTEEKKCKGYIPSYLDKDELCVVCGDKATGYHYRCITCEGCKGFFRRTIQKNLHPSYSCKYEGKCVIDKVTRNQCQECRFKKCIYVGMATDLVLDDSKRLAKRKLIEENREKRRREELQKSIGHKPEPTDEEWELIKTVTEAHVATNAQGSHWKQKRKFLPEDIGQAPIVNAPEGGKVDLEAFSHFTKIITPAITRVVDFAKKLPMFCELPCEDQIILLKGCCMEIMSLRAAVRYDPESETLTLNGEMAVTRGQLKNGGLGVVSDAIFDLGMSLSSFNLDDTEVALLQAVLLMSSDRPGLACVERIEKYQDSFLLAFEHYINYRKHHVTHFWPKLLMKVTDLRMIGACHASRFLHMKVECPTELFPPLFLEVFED
# Experiment: qHTS for Inhibitors of the Interaction of Thyroid Hormone Receptor and Steroid Receptor Coregulator 2; also: nearly all actives have a fitted effect of over 50% in size;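 as to activity change, negative = inhibition: plate controls were bound peptide for no effect and peptide without receptor for full effect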
# Conditions: TRbeta-SRC2 peptide binding, fluorescence polarization, receptor liganded with 1 µM T3; series mostly up to 106 µM; activity change, negative = inhibition: at the top concentration
# From the text: NIH Molecular Libraries Probe Production Network [MLPCN]
# NIH Chemical Genomics Center [NCGC]
# Assay Provider: R. Kip Guy, St. Jude Children's Research Hospital
# Thyroid receptor (TR) regulates many homeostatic processes including basal metabolism, cardiovascular function, body weight, and lipid trafficking. TR modulators are potential therapeutics for obesity and hyperlipidemias but current thyroid analogs have undesirable side effects, particularly cardiac stimulation. To identify inhibitors that specifically prevent the interaction of TR with the steroid receptor coregulator 2 (SRC2), a fluorescence polarization assay was screened. This assay detects interaction of the ligand-binding domain of human TRb with a Texas Red labeled SRC2 peptide, corresponding to a 20 amino acid region of the nuclear receptor interaction domain (Arnold et al., 2006). Small molecule inhibitors that block the interaction of TR and SRC2 are detected by a decrease in fluorescence polarization.
# Arnold, L. A.; Estebanez-Perpina, E.; Togashi, M.; Shelat, A.; Ocasio, C. A.; McReynolds, A. C.; Nguyen, P.; Baxter, J. D.; Fletterick, R. J.; Webb, P.; Guy, R. K. A high-throughput screening method to identify small molecule inhibitors of thyroid hormone receptor coactivator binding. Sci STKE 2006, p 13.
# NCGC Assay Protocol Summary:
# For screening, 5 uL/well 0.6 uM TRb and 20 nM SRC2 Texas Red in protein buffer (20mM Tris hydrochloride, 100mM NaCl, 10% glycerol, 1mM EDTA, 0.01% NP-40, 1mM DTT, 1uM T3 and 5% DMSO) was dispensed into black solid 1536-well plates (Grenier) using a solenoid-based dispenser. Following transfer of 23 nL compound or DMSO vehicle by a pin tool, the plates were centrifuged 15 s at 1000 RPM and incubated 5 hr at ambient temperature. The plates were read by an Envision (Perkin Elmer) to detect fluorescence polarization of SRC2 Texas Red (555 nm excitation and 632 nm emission). Data were normalized to unbound (all components except TRb) and bound SRC2 Texas Red controls. In this assay, we provide % activity data for each concentration as well as potencies for the active compounds.
# Keywords: NIH Roadmap, MLPCN, MLI, MLSMR, qHTS, NCGC, qHTS, thyroid hormone receptor, steroid receptor coactivator, fluorescence polarization
# Potency is read from the fitted curve at half-maximal effect.
Structure (SMILES),"activity change, negative = inhibition",Potency
c1ccc2c(c1)c1cccc3ccc4cccc2c4c31,inactive: -3.74%,–
CN(C)[C@@H]1C(=O)C(C(N)=O)=C(O)[C@@]2(O)C(=O)C3=C(O)c4c(O)cccc4[C@@](C)(O)[C@H]3[C@H](O)[C@@H]12,–,inactive
CC(=O)NC1N=C(C)N(c2ccccc2)C1=O (centres undefined),–,active: 31.6 µM
CN1CC[C@@]2(C)c3cc(O)ccc3N(C)[C@@H]12,inactive: -10.6%,–
